Laboratory results: the supplement of paper PMC7826260
The list shows a part of the results. Viral Rep nickase domains cut single-stranded DNA in vitro at 3 µM enzyme and 37 °C for 1 h; the strands have 90 letters, of which the middle is given. A value is the log2 ratio of uncut reads to the pool without enzyme; strong cutting gives strongly negative numbers. There is no active / inactive call. The scaling is to total reads; uncut strands gain when others are lost, and binding without cutting may add a little.

Key:
Assay in all cases: uncleaved DNA left, log2 of reads against the no-enzyme library (log2 ratio); higher = less cleavage (more negative = more Rep cleavage of the k-mer); sequences stand for … in CTCGTCCG…ACCGGAGA
[1] = system: T1, Rep nickase domain of Muscovy duck circovirus
T1 sequence (residues 1-111, tag not shown): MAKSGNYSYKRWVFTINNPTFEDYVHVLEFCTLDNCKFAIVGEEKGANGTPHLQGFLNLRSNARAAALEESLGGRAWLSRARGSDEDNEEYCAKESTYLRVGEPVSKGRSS
Method: (§1)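 A pool of 90-nt single-stranded DNAs with seven random bases just before the constant AC of the nick site (name = the seven bases) was cut by 3 µM recombinant His6-SUMO-tagged Rep nickase domain (300 nM DNA, 50 mM HEPES pH 8.0, 50 mM NaCl, 1 mM MnCl2, 1 h, 37 °C, three replicates). Uncut DNA was amplified and sequenced.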

[2] = system: T2, Rep nickase domain of banana bunchy top virus
T2 sequence (residues 1-94, tag not shown): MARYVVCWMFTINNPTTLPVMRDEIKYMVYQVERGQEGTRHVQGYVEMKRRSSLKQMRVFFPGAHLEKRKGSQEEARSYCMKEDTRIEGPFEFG
Method: as §1

[3] = system: T3, Rep nickase domain of cabbage leaf curl virus
T3 sequence (residues 1-116, tag not shown): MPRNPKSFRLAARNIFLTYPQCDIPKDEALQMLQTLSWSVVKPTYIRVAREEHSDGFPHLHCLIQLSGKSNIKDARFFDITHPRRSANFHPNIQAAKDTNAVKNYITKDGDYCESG
Method: as §1

[4] = system: T4, Rep nickase domain of chickpea chlorotic dwarf virus
T4 sequence (residues 1-124, tag not shown): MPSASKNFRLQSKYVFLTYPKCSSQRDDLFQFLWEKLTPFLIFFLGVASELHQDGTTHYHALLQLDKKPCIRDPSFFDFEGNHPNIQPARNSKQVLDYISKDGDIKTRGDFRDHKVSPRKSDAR
Method: as §1

[5] = system: T5, Rep nickase domain of faba bean necrotic yellows virus
T5 sequence (residues 1-98, tag not shown): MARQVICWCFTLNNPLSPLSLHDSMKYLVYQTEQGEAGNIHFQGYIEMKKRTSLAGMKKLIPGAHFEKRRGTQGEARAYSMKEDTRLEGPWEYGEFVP
Method: as §1

[6] = system: T6, Rep nickase domain of maize striate mosaic virus
T6 sequence (residues 1-117, tag not shown): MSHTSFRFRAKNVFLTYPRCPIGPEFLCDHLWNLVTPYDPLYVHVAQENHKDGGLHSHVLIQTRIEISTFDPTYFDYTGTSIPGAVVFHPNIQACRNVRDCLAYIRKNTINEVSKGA
Method: as §1

[7] = system: T7, Rep nickase domain of porcine circovirus 2
T7 sequence (residues 2-116, tag not shown): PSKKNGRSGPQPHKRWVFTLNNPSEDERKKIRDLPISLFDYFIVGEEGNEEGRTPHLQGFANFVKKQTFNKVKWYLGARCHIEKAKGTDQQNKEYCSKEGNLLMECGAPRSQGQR
Method: as §1

[8] = system: T8, Rep nickase domain of tomato golden mosaic virus
T8 sequence (residues 1-124, tag not shown): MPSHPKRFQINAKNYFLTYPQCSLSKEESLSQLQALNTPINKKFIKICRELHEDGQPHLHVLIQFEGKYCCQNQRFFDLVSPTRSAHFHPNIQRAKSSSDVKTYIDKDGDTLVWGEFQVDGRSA
Method: as §1

[9] = system: T9, Rep nickase domain of tomato yellow leaf curl virus
T9 sequence (residues 1-136, tag not shown): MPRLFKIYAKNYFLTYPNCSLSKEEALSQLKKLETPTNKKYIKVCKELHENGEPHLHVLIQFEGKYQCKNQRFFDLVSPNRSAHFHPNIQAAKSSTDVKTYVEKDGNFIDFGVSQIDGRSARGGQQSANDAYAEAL
Method: as §1

[10] = system: T10, Rep nickase domain of wheat dwarf virus
T10 sequence (residues 1-137, tag not shown): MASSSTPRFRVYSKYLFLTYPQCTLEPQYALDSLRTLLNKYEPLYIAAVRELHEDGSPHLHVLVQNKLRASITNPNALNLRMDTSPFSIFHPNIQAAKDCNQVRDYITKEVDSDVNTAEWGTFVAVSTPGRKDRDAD
Method: as §1

| Sequence | uncleaved DNA left (log2) [1] | uncleaved DNA left (log2) [2] | uncleaved DNA left (log2) [3] | uncleaved DNA left (log2) [4] | uncleaved DNA left (log2) [5] | uncleaved DNA left (log2) [6] | uncleaved DNA left (log2) [7] | uncleaved DNA left (log2) [8] | uncleaved DNA left (log2) [9] | uncleaved DNA left (log2) [10] |
| --- | --- | --- | --- | --- | --- | --- | --- | --- | --- | --- |
| TTTATGT | 0.0693 | -0.0497 | 0.0528 | -0.193 | -0.0621 | -0.635 | -0.261 | -0.0508 | -0.0471 | -0.039 |
| CTTACAT | 0.0406 | 0.0742 | 0.13 | -1.65 | -0.0905 | 0.076 | -0.0668 | 0.00323 | 0.0759 | 0.0979 |
| ACACCAT | -0.0397 | -0.118 | -0.142 | -0.777 | -0.11 | -0.461 | -0.0132 | -0.13 | -0.0946 | -0.0108 |
| GCTTGAA | 0.0475 | 0.119 | 0.209 | 0.634 | 0.116 | 0.121 | 0.184 | 0.171 | 0.212 | 0.086 |
